Test results published in the supplement of paper PMC7125110.
± gives the standard error. Variants at the floor of the assay are shown more often than the library holds them.

B1: glmS ribozyme (parent)
chain: AUAAAAGCGCCAGAACUACAGAAAUGUAGUUGACGAGGAGGAGGUUUAUCGAAUUUUCGGCGGAUGCCUCCAAA

Variants of: B1
Test: self-cleavage kobs at 160 uM GlcN6P; higher = faster cleavage; RNA array
Conditions: with glucosamine-6-phosphate
How it was run: (§1)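 Sequenced MiSeq chips were the platform: E. coli RNA polymerase transcribed barcoded ribozyme variants on them in situ, and a hybridised Cy3 probe tracked these at 37 °C. After glucosamine-6-phosphate (40 μM to 10 mM) in HEPES/KCl/Mg(OAc)2 buffer was flowed in, tiles were imaged over ~14 h. Signals normalised to baseline and to non-cleaving reference variants were reduced to per-tile medians and fit to one- or two-exponential decays to obtain kobs. kcat and KM were derived through weighted Michaelis–Menten fits across concentrations.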

| Variant | self-cleavage kobs at 160 uM GlcN6P [s⁻¹] |
| --- | --- |
| A53U G63A | < 1e-05 |
| U54G G60A | < 1e-05 |
| G40C A48G | < 1e-05 |
| G44C U54G | < 1e-05 |
| G44A U47G C58A | < 1e-05 |
| C50G U54C | 5.92e-05 ± 2.5e-05 |
| G41C C50A A53G | < 1e-05 |
| G51U A52U G62A G63C A64G | < 1e-05 |
| A39G G51C | < 1e-05 |
| U57C C58G | < 1e-05 |
| G38U U56C U65A | < 1e-05 |
| U54C U57G | < 1e-05 |
| C61G G62U C68G | < 1e-05 |
| A42G C58U | < 1e-05 |
| G51U G62A G63C | < 1e-05 |
| C58U G62U | < 1e-05 |
| U57C G59C C71A | < 1e-05 |
| G40U G41C U56A | < 1e-05 |
| G44C A53U | < 1e-05 |
| G40A G62A | < 1e-05 |
| C50G A53U | 0.00155 ± 0.00063 |
| C61U G62C G66A C71U | < 1e-05 |

| Variant | self-cleavage kobs at 160 uM GlcN6P [s⁻¹] |
| --- | --- |
| G40U C61A C70U | < 1e-05 |
| A39G G43C C50A | < 1e-05 |
| U46G U47G A48G C71A | < 1e-05 |
| A39C U57G C61A U69C | < 1e-05 |
| A42C G51U A53C C71G | < 1e-05 |
| G51U U57A G66A | < 1e-05 |
| A42U G44C G63U | < 1e-05 |
| G41A A42U G62U | < 1e-05 |
| A42C A52C C67G | < 1e-05 |
| U49G G62U | < 1e-05 |
| G44C U46C | < 1e-05 |
| G41C G51C A64C | < 1e-05 |
| G38U C50U A53U G59C | < 1e-05 |
| A48G G66U | < 1e-05 |
| G40A A48G C50G | < 1e-05 |
| U46C A48U | < 1e-05 |
| G41C U54G C67U | < 1e-05 |
| G40A A64U C68A | < 1e-05 |
| A39G G41A G59U G60U | < 1e-05 |
| A48G G62A U65G | < 1e-05 |
| A39G G51U G59U | < 1e-05 |
| A53U C61G G66U | < 1e-05 |

Variants of: B1
Test: self-cleavage kobs at 10000 uM GlcN6P; higher = faster cleavage; RNA array
Conditions: with glucosamine-6-phosphate
How it was run: as §1

| Variant | self-cleavage kobs at 10000 uM GlcN6P [s⁻¹] |
| --- | --- |
| A53U G63A | < 1e-05 |
| A6U U30G G35C G62U | < 1e-05 |
| A39G G51C | < 1e-05 |
| G38U U56C U65A | < 1e-05 |
| C58U G62U | < 1e-05 |
| G40A G62A | < 1e-05 |
| A6U C8G C10G | < 1e-05 |
| G51U U57A G66A | < 1e-05 |
| G7U U45A C50A C71G | < 1e-05 |
| A6C A14U U46A | < 1e-05 |
| A48G G66U | < 1e-05 |
| U46C A48U | 6.9e-05 ± 9e-06 |

Variants of: B1
Test: self-cleavage kobs at 2500 uM GlcN6P; higher = faster cleavage; RNA array
Conditions: with glucosamine-6-phosphate
How it was run: as §1

| Variant | self-cleavage kobs at 2500 uM GlcN6P [s⁻¹] |
| --- | --- |
| A6G G43U U45A C50U G59A U69G C70U | < 1e-05 |
| A6U U30G G35C G62U | < 1e-05 |
| A6C C8G G44A | < 1e-05 |
| A6C A15U G35A G40U | < 1e-05 |
| A6C G41U C50U C58U C67U | < 1e-05 |
| A6U C11U G32U U55G A64C | < 1e-05 |
| G7U C34A C70U | < 1e-05 |
| A6U U31C G59A G66C | < 1e-05 |
| G7A A36G G38A U47G A53G | < 1e-05 |
| G7C G13C A48G C50U C71U | < 1e-05 |
| A6U A15U A36C | < 1e-05 |
| A6U G37A G51C | < 1e-05 |
| A6G G40A G41C | < 1e-05 |
| A6U C34G A64C | < 1e-05 |
| G7C C11A A15U C16U A36G | < 1e-05 |
| A6U A14G A33C G35U G40A A48C G51U | < 1e-05 |
| C8G A33C C34U U46G U65C | < 1e-05 |
| G7A U31C A39G A52U | < 1e-05 |
| C8A G29A A33U G44C C50A U55G U56C | < 1e-05 |
| A6G A14G A36U | < 1e-05 |
| C8G G29A A39C A53U G66U | < 1e-05 |
| C50G U54C | 5.87e-05 ± 1.8e-05 |
| A6G G7A A14C C70U | < 1e-05 |
| G7A A33C A53G A64U | < 1e-05 |
| G7A G9U G44A | < 1e-05 |
| A6C U31A C34A | < 1e-05 |

| Variant | self-cleavage kobs at 2500 uM GlcN6P [s⁻¹] |
| --- | --- |
| G7C G29A U30A G35A | < 1e-05 |
| C8A A53C U55C G60U C68G | < 1e-05 |
| A39G G51C | < 1e-05 |
| G38U U56C U65A | < 1e-05 |
| G7U G29A A36C U69C | < 1e-05 |
| G7U U31C G32C G35C A36C C71U | < 1e-05 |
| G7C C10U G13C G66U | < 1e-05 |
| A6G G35U G40A | < 1e-05 |
| G7A C8G G9C U31G G37C C67U C68G C70G | < 1e-05 |
| G7A A12C G13A U46A C50U | < 1e-05 |
| C61G G62U C68G | < 1e-05 |
| G7A A14U U30C | < 1e-05 |
| A6U A42C U57G | < 1e-05 |
| G7U C16U U49G C67G | < 1e-05 |
| G7A U45A C61A | < 1e-05 |
| A6G A33U G66U | < 1e-05 |
| A6G G51C G62A | < 1e-05 |
| A6C G44U C71A | < 1e-05 |
| A6U A14G U69G | 0.000146 ± 3.5e-05 |
| A6G G29C A33G C34A | < 1e-05 |
| G7U C16U A36U | < 1e-05 |
| A6U G38A G40C U65G | < 1e-05 |
| U57C G59C C71A | < 1e-05 |
| A6G A15U U46A A64U | < 1e-05 |
| G7C G29U C34A | < 1e-05 |
| C8A G63A C67U | < 1e-05 |

| Variant | self-cleavage kobs at 2500 uM GlcN6P [s⁻¹] |
| --- | --- |
| C8A C11A G38U C61G | < 1e-05 |
| G40A G62A | < 1e-05 |
| G7C A33C U47G G60U | < 1e-05 |
| G40U C61A C70U | < 1e-05 |
| A39G G43C C50A | < 1e-05 |
| G7A G41U C67A | < 1e-05 |
| G7A G37U A52C G62A C71U | < 1e-05 |
| G7C A12C A14G A64G C68U | < 1e-05 |
| A6U C8G C10G | < 1e-05 |
| C8G A15C A36G | < 1e-05 |
| G7U G35A U69G | < 1e-05 |
| G7U U30G A33U G44C | < 1e-05 |
| A6G G43U G44A A48U G63A | < 1e-05 |
| C8A A33U C68G | < 1e-05 |
| G7U C8U U55A A64U | < 1e-05 |
| A6C A39G C50G C61U | < 1e-05 |
| A6G G26U U46C | < 1e-05 |
| A6U G35U G37C U47A | < 1e-05 |
| U46G U47G A48G C71A | < 1e-05 |
| A6C C10A A36C U57C A64G | < 1e-05 |
| A6C A52G | < 1e-05 |
| C8A A48U U69A | < 1e-05 |
| A6U A14C A48C G51A | < 1e-05 |
| A6C G41C G44U C58U | < 1e-05 |
| A39C U57G C61A U69C | < 1e-05 |
| A6G G38C C71A | < 1e-05 |

| Variant | self-cleavage kobs at 2500 uM GlcN6P [s⁻¹] |
| --- | --- |
| G51U U57A G66A | < 1e-05 |
| G7U U45A C50A C71G | < 1e-05 |
| A6C G32U G41U U54A | < 1e-05 |
| A6C A15U G43A C71U | < 1e-05 |
| A6G A14C G44A G51U | < 1e-05 |
| G7A C34U U46G | < 1e-05 |
| G7U C67G | < 1e-05 |
| C8G A42C C67U C70U | < 1e-05 |
| U49G G62U | < 1e-05 |
| A6G U30A A36C G41A U56C | < 1e-05 |
| G7C C16U C68A C70G | < 1e-05 |
| A6C A14U U46A | < 1e-05 |
| A6U G7A G35A | < 1e-05 |
| A6U C8U C11A C16U G44U | < 1e-05 |
| G38U C50U A53U G59C | < 1e-05 |
| A6C A36U G37C A39U | < 1e-05 |
| A6G G40U A52G A53U | < 1e-05 |
| A6U A15G C34G U54A | < 1e-05 |
| G40A A48G C50G | < 1e-05 |
| A6U G44A U56A | < 1e-05 |
| G7U G13A A15C G29U A36G | < 1e-05 |
| G7U G37U A42U G51U | < 1e-05 |
| G7U G29U A42C A53C G66A | < 1e-05 |
| U46C A48U | 6.44e-05 ± 1.3e-05 |
| A6G G38C G41U C68U | < 1e-05 |
| A6G G32C U45C U54C G62A | < 1e-05 |

| Variant | self-cleavage kobs at 2500 uM GlcN6P [s⁻¹] |
| --- | --- |
| C8A G29C G63A C70U | < 1e-05 |
| C8A A14C G51U | < 1e-05 |
| A6G A53U C71A | < 1e-05 |
| A6G A42U U47C | < 1e-05 |
| G40A A64U C68A | < 1e-05 |
| G7A A33U A42U G44U G51A | < 1e-05 |
| A6G G13U G41U G51U | < 1e-05 |
| G7A A12C A15U G41U | < 1e-05 |
| C8G A14U A53G | < 1e-05 |
| G7U C10A U49G | < 1e-05 |
| A6U G35U A42C A48G | < 1e-05 |
| C8G A14G G32U A64U | < 1e-05 |
| C8A U46G C61A U65C | < 1e-05 |
| A6C A15G U57A G62C A64U | < 1e-05 |
| A6C G13U A33U A52C G63C | < 1e-05 |
| A6U G43C U54A | < 1e-05 |
| A6U A12C C34U A48G C61G A64U | < 1e-05 |
| G7U U45A C58A | < 1e-05 |
| C8A G32U G37U | < 1e-05 |
| C8G C16A G43U G44U G62A | < 1e-05 |
| G7U A39C U69C | < 1e-05 |
| G7A C8G A12G G13C | < 1e-05 |
| A6G G37A U45C U65G | < 1e-05 |
